Experimental data published in the supplement of paper PMC10441789.
The other results are listed elsewhere or left out. Antibody binding of pooled human sera (four to six donors per pool; dilution not stated) to peptides of the Trypanosoma cruzi antigen TSSA on microarrays. Quantile-normalised fluorescence in arbitrary units, mean of duplicate arrays; higher = more binding. No active / inactive call. The uninfected pools are read here as the healthy donors of the same country. The strongest signals lie near the top of the scale (about 60,000).

Experiments:
Experiment in all cases: antibody binding signal (normalised fluorescence) (arbitrary fluorescence units); higher = stronger serum antibody binding to peptide
[1] = test system: pooled sera of chronic Chagas disease patients, Argentina
Procedure: (§1)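 Microarray of 15-residue peptides over residues 30-55 of Trypanosoma cruzi TSSAII, each with 1 to 10 substitutions at naturally variable positions, probed with one serum pool per country.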

[2] = test system: pooled sera of chronic Chagas disease patients, Bolivia
Procedure: as §1

[3] = test system: pooled sera of chronic Chagas disease patients, Brazil
Procedure: as §1

[4] = test system: pooled sera of chronic Chagas disease patients, Colombia
Procedure: as §1

[5] = test system: pooled sera of chronic Chagas disease patients, Mexico
Procedure: as §1

[6] = test system: pooled sera of chronic Chagas disease patients, USA
Procedure: as §1

[7] = test system: pooled sera of uninfected people, Argentina
Procedure: as §1

[8] = test system: pooled sera of uninfected people, Bolivia
Procedure: as §1

[9] = test system: pooled sera of uninfected people, Brazil
Procedure: as §1

[10] = test system: pooled sera of uninfected people, Colombia
Procedure: as §1

[11] = test system: pooled sera of uninfected people, Mexico
Procedure: as §1

[12] = test system: pooled sera of uninfected people, USA
Procedure: as §1

Sequence	antibody binding signal [1]	antibody binding signal [2]	antibody binding signal [3]	antibody binding signal [4]	antibody binding signal [5]	antibody binding signal [6]	antibody binding signal [7]	antibody binding signal [8]	antibody binding signal [9]	antibody binding signal [10]	antibody binding signal [11]	antibody binding signal [12]
TDKKPATGETPSPPG	29000	26300	29700	444	352	23600	127	430	234	156	1640	1270
DNKPATGGAPSPSGA	713	21500	5040	364	358	2980	373	981	683	238	330	163
KKPATGEAPSQPGAS	21500	14400	45000	166	250	40500	921	744	162	184	107	517
PPSGKDNKTATGEAP	15000	24600	12400	1180	7260	20900	414	490	442	416	151	246
PPSGKDNKTAAGETP	750	723	2050	1940	3450	3860	385	719	236	396	204	208
KDKKPATGGTPSPSG	357	301	144	647	233	306	153	82.2	208	151	74.4	97.8
GKDKKPAAGETPSQP	476	892	24400	638	1020	1700	96.5	145	83	160	89.7	102
KKAAAGGTPSPPGAS	214	213	188	2050	155	1170	192	134	567	158	69.9	238
KEKKTAAGETPSQPG	186	259	15800	202	145	1290	112	87.7	111	352	68.8	139
GTEKKPATGEAPSPP	41900	40800	47100	1150	2190	37300	863	1320	1260	242	468	963
GKDKKPATGGAPSQS	829	333	415	722	1220	1290	225	251	98	82.7	79.5	102
TISTPPSGKENKAAT	12000	2810	6900	713	2410	1970	2910	1100	194	738	153	440
GKDNKTAAGETPSQP	1570	1110	28700	3210	1980	2560	291	332	172	302	159	134
GKENKPAAGGTPSPS	1610	512	2880	3740	2980	6450	783	222	447	218	183	118
GKEKKTATGETPSPP	7360	1310	2320	5280	8330	8580	278	133	91.1	123	141	195
ISTPPSGTDKKAATG	32700	4540	33500	8290	41000	3850	474	132	148	445	1330	244
SSTPPSGKDKKAATG	23700	781	934	238	40400	757	143	354	133	174	92.5	119
STPPSGTEKKTAAGG	36300	12700	29900	3650	26000	4580	936	272	168	141	133	250
GTENKTAAGEAPSQS	26800	20300	11200	668	961	9420	270	493	240	247	158	135
SGKDNKAATGEAPSQ	24800	24300	33300	569	459	24700	299	270	165	333	108	119
DNKPAAGETPSPPGA	163	275	18500	282	214	3690	125	297	270	181	237	271
KKTATGGAPSPSGAS	586	455	567	1970	338	501	265	213	155	135	167	289
GKEKKPATGEAPSPP	40000	27100	41600	5760	7250	30700	816	305	156	151	107	314
ENKPAAGETPSQSGA	1490	1630	21700	440	434	4860	168	304	306	240	182	194
TDNKAAAGGTPSQPG	246	447	1700	3120	219	1070	358	286	1480	413	739	124
